Assay results from patent US8846868B2, “Anti-AREG/HB-EGF antibodies and treatment” (Fusion Antibodies Limited, priority 2008, dated 2014).

Test system: HCT116 cells
Experiment: MTT cell viability assay, HB-EGF siRNA and/or AREG antibody
Type: cell-based, human
Settings: for RI value (Sexp/Sobs; synergism RI>1): AREG antibody in combination with HBEGF siRNA; for reduction on growth: agent alone, HB-EGF siRNA 50 nM, MTT 72 hr after transfection
Description: FIG. 2 illustrates HCT116 cell proliferation following HB-EGF silencing by siRNA and/or treatment with AREG antibody. Cells were transfected with HB-EGF siRNA (50 nM) or a control siRNA (50 nM). Cell proliferation was analysed by MTT assay 72 hr after transfection;
FIG. 3 illustrates RI values calculated by MTT cell viability assays in response to HBEGF siRNA and AREG antibodies. The RI value is calculated as the ratio of expected survival (Sexp defined as the product of the survival observed with drug A alone and the survival observed with drug B alone) to the observed cell survival (Sobs) for the combination of A and B. (RI=Sexp/Sobs). Synergism is defined as RI>1;
Cells were seeded at 5 000 cells per well in a 96 well plate or 5×10^5 cells per well in a 6 well plate. The cells were cultured for 24 hours before transfection. The siRNA was made up to 100 nM in serum free DMEM and left for 5 minutes at room temperature. The Dharmafect transfection reagent was also made up in the serum free DMEM and incubated for 5 minutes at room temperature. The transfection reagent was added to the siRNA and incubated at room temperature for 20 minutes. The media was removed from the plate wells and antibiotic free DMEM was added to the wells. After 20 minutes the siRNA was added dropwise to the wells. The plates were incubated at 37° C. for 48 hours.
Cell viability was assessed by 3-(4,5-dimethylthiazol-2-yl)-2,5-diphenyltetrazolium bromide (MTT, Sigma) assay (Mosmann, 1983). To assess chemotherapy/siRNA interactions 5000 cells were seeded per well on 96 well plate. After 24 hours cells were transfected with siRNA and treated with various chemotherapeutic agents at different concentrations. After 48 hours MTT (1.0 mg/ml) was added to each well and cells were incubated at 37° C. for 2 hours. The culture media was removed and formazan crystals were reabsorbed in 200 μl DMSO. Cell viability was determined by reading the absorbance of each well at 570 nm using a microplate reader (Tecan Sunrise, Biorad, UK).

B1: 6E11 1E9 2D8: AREG monoclonal antibody (antibody, V domains shown)
VH: QVQLQQSGAELARPGASVKLSCKASGYTFTRYWMQWIKQRPGQGLEWIGAIYPGNGDIRYTQKFKGKATLTADKSSSTAYMQLSSLASEDSAVYYCARGTTPSSYWGQGTLVTVSAAKTTAPSVYPLAPVCGDTTGSSVTLGCLVKGYF
VL: DVVMTQTPLTLSVSIGQPASISCKSSQSLLDSDGKTYLNWLLQRPGQSPKRLIYLVSKLDSGVPDRFTGSGSGTDFTLKISRVEAEDLGVYYCWQGTHFPWTFGGGTKLEIKRADAAPTVSIFPPSSEQLTSGGASVVCFLNNFYPK
RI value (Sexp/Sobs; synergism RI>1): 2
reduction on growth: 50%

B2: 6E11 1E9 106: AREG monoclonal antibody; VH Sequence ID No: 3, VL Sequence ID No: 4 (antibody, listed as Mus musculus)
VH: MECNWILPFILSVTSGVYSQVQLQQSGAELARPGASVKLSCKASGYTFTRYWMQWIKQRPGQGLEWIGAIYPGNGDIRYTQKFKGKATLTADKSSSTAYMQLSSLASEDSAVYYCARGTTPSSYWGQGTLVTVSAAKTTAPSVYPLAPVCGDTTGSSVTLGCLVKGYF
light: MMSPAQFLFLLVLWIRETSGDVVMTQTPLTLSVSIGQPASISCKSSQSLLDSDGKTYLNWLLQRPGQSPKRLIYLVSKLDSGVPDRFTGSGSGTDFTLKISRVEAEDLGVYYCWQGTHFPWTFGGGTKLEIKRADAAPTVSIFPPSSEQLTSGGASVVCFLNNFYPK
RI value (Sexp/Sobs; synergism RI>1): 5
reduction on growth: 50%
